Values joined by “and” are separate entries in the source; they are usually repeats but may differ in a detail not shown here. Equal entries are not always repeated.
Assay: pH degradation rate study, SE-HPLC
Type: physicochemical
Experimental: To further investigate the role of pH and its influence on protein stability, wild-type hCD83ext (lot 021 in PBS at pH 7.6) was freshly thawed and analyzed (first row of Table 6) or stored at room temperature and 2-8° C., at pH's of 4, 5, 6, 7, 8 and 9. Samples were kept at −70° C. until analyzed, after 1,2, 4 and 10 days of storage. These samples were then analyzed by SEC HPLC (Table 6) or using by SDS-PAGE Bioanalyzer (under reduced and non-reduced conditions; FIGS. 31-35).

[1] = Freshly prepared on day of analysis, 0 days (PBS pH 7.6), listed as wild-type hCD83ext

B1: hCD83ext-wt: recombinant human sCD83 (CD83 extracellular domain) purified from E. coli, wild type form, SEQ ID NO:5 (protein)
chain: GSPGTPEVKVACSEDVDLPCTAPWDPQVPYTVSWVKLLEGGEERMETPQEDHLRGQHYHQKGQNGSFDAPNERPYSLKIRNTTSCNSGTYRCTLQDPDGQRNLSGKVILRVTGCPAQRKEETFKKYRAEI
modifications: Synthetic extracellular domain of human CD83 with the addition of Gly-Ser-Pro-Gly at the N-terminus and Ile at the C-terminus
With B1 the “% AGGREGATE” value [1] was 1.98% and 2.20% and 2.13%, the “% FRAGMENTS” value [1] was 43.67% and 38.33% and 40.69% and the “% MONOMER” value [1] was 54.35% and 59.47% and 57.18%. The “% FRAGMENTS” value (pH 5, 2-8 C., 10 days) was 41.55%, the “% AGGREGATE” value (pH 5, RT, 1 day) was 0.00% and the “% FRAGMENTS” value (pH 5, RT, 1 day) was 46.42%. The “% MONOMER” value (pH 5, RT, 1 day) was 53.58%, the “% AGGREGATE” value (pH 5, RT, 10 days) was 4.61% and the “% FRAGMENTS” value (pH 5, RT, 10 days) was 54.23%. The “% MONOMER” value (pH 5, RT, 10 days) was 41.16%, the “% AGGREGATE” value (pH 6, 2-8 C., 1 day) was 6.39% and the “% FRAGMENTS” value (pH 6, 2-8 C., 1 day) was 45.07%. The “% MONOMER” value (pH 6, 2-8 C., 1 day) was 48.54%, the “% AGGREGATE” value (pH 6, 2-8 C., 10 days) was 9.90% and the “% FRAGMENTS” value (pH 6, 2-8 C., 10 days) was 45.94%. The “% MONOMER” value (pH 6, 2-8 C., 10 days) was 44.16%, the “% AGGREGATE” value (pH 6, RT, 1 day) was 0.00% and the “% FRAGMENTS” value (pH 6, RT, 1 day) was 46.19%. The “% MONOMER” value (pH 6, RT, 1 day) was 53.81%, the “% AGGREGATE” value (pH 6, RT, 10 days) was 11.78% and the “% FRAGMENTS” value (pH 6, RT, 10 days) was 57.05%. The “% MONOMER” value (pH 6, RT, 10 days) was 31.17%, the “% AGGREGATE” value (pH 7, 2-8 C., 1 day) was 6.02% and the “% FRAGMENTS” value (pH 7, 2-8 C., 1 day) was 37.63%. The “% MONOMER” value (pH 7, 2-8 C., 1 day) was 56.35%, the “% AGGREGATE” value (pH 7, 2-8 C., 10 days) was 12.60% and the “% FRAGMENTS” value (pH 7, 2-8 C., 10 days) was 44.39%. The “% MONOMER” value (pH 7, 2-8 C., 10 days) was 43.01%, the “% AGGREGATE” value (pH 7, RT, 1 day) was 0.00% and the “% FRAGMENTS” value (pH 7, RT, 1 day) was 47.89%. For the same molecule, the “% MONOMER” value (pH 7, RT, 1 day) was 52.11%, the “% AGGREGATE” value (pH 7, RT, 10 days) was 17.27% and the “% FRAGMENTS” value (pH 7, RT, 10 days) was 54.12%. The “% MONOMER” value (pH 7, RT, 10 days) was 28.61%, the “% AGGREGATE” value (pH 8, 2-8 C., 1 day) was 5.76% and the “% FRAGMENTS” value (pH 8, 2-8 C., 1 day) was 35.49%. For the same molecule, the “% MONOMER” value (pH 8, 2-8 C., 1 day) was 58.75%, the “% AGGREGATE” value (pH 8, 2-8 C., 10 days) was 9.75% and the “% FRAGMENTS” value (pH 8, 2-8 C., 10 days) was 77.99%. The “% MONOMER” value (pH 8, 2-8 C., 10 days) was 12.26%, the “% AGGREGATE” value (pH 8, RT, 1 day) was 4.66% and the “% FRAGMENTS” value (pH 8, RT, 1 day) was 42.02%. The “% MONOMER” value (pH 8, RT, 1 day) was 53.32%, the “% AGGREGATE” value (pH 8, RT, 10 days) was 22.25% and the “% FRAGMENTS” value (pH 8, RT, 10 days) was 46.63%. The “% MONOMER” value (pH 8, RT, 10 days) was 31.12%, the “% AGGREGATE” value (pH 9, 2-8 C., 1 day) was 9.03% and the “% FRAGMENTS” value (pH 9, 2-8 C., 1 day) was 31.91%. The “% MONOMER” value (pH 9, 2-8 C., 1 day) was 59.06%, the “% AGGREGATE” value (pH 9, 2-8 C., 10 days) was 16.05% and the “% FRAGMENTS” value (pH 9, 2-8 C., 10 days) was 37.08%. For the same molecule, the “% MONOMER” value (pH 9, 2-8 C., 10 days) was 46.87%, the “% AGGREGATE” value (pH 9, RT, 1 day) was 4.79% and the “% FRAGMENTS” value (pH 9, RT, 1 day) was 37.14%. For the same molecule, the “% MONOMER” value (pH 9, RT, 1 day) was 58.07%, the “% AGGREGATE” value (pH 9, RT, 10 days) was 20.16% and the “% FRAGMENTS” value (pH 9, RT, 10 days) was 44.27%. For the same molecule, the “% MONOMER” value (pH 9, RT, 10 days) was 35.57%.
